We go through 29 compounds from PubChem BioAssay AID1745853 (National Center for Advancing Translational Sciences (NCATS), 2022).

The list shows a part of the results. The main result of the screen is listed elsewhere. These columns were measured beside it and carry no call.

What all share (assay): Primary Screen for Target Class Profiling of Small Molecule Inhibitors of Methyltransferases
Assay [1] concerns the target Glycine N-methyltransferase (Homo sapiens) (UniProt Q14749). As to conditions: purified enzyme, MTase-Glo SAH luminescence; measured here: GNMT inhibition; at 40 µM; stronger effect = lower value. The essentials:
(§1)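 Each enzyme was reacted with SAM and its substrate, with compounds tested once at 40 uM; SAH formed was read by MTase-Glo luminescence.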

Assay [2] concerns the target Guanidinoacetate N-methyltransferase (Homo sapiens) (UniProt Q14353). Conditions: purified enzyme, MTase-Glo SAH luminescence; measured here: GAMT inhibition; at 40 µM; stronger effect = lower value. In outline:
as §1

For assay [3], the target named is Histamine N-methyltransferase (Homo sapiens) (UniProt P50135). As to conditions: purified enzyme, MTase-Glo SAH luminescence; measured here: HNMT inhibition; at 40 µM; stronger effect = lower value. The essentials: as §1
Assay [4] addresses Nicotinamide N-methyltransferase (Homo sapiens) (UniProt P40261). As to conditions: purified enzyme, MTase-Glo SAH luminescence; measured here: NNMT inhibition; at 40 µM; stronger effect = lower value. In outline:
as §1

The target of assay [5] is Phenylethanolamine N-methyltransferase (Homo sapiens) (UniProt P11086). Conditions: purified enzyme, MTase-Glo SAH luminescence; measured here: PNMT inhibition; at 40 µM; stronger effect = lower value. In outline:
as §1
On the % scale 0 is the no-effect control and ±100 the full control effect.

Regarding `CC(=O)N1CCC(OCCOc2ccccc2)CC1`, the activity change, negative = inhibition is -3.05% in assay [1]; -0.96% in assay [2]; 1.97% in assay [3]; 0.171% in assay [4]; 16.9% in assay [5].

Turning to `CN1C(=O)c2cc(C(=O)NCCCN3CCOCC3)nn2CC1(C)C(=O)NC1CCCCCC1` (stereo not drawn), the activity change, negative = inhibition was determined as 6.89% in assay [1]; 2.85% in assay [2]; 8.5% in assay [3]; 6.32% in assay [4]; 3.57% in assay [5].

As to `COC(=O)c1cc2n(n1)CC(C)(C(=O)NC1CCCCC1)N(c1cccc(Cl)c1C)C2=O` (stereo not drawn), the activity change, negative = inhibition in assay [1] came to 7.42%; in assay [2] it was 1.91%; in assay [3], 10.5%; in assay [4], 6.7%; in assay [5], 4.81%.

Turning to `CC(C)=CCC[C@](C)(O[C@@H]1O[C@H](CO[C@@H]2O[C@@H](CO)[C@H](O)[C@H]2O[C@@H]2OC[C@@H](O)[C@H](O)[C@H]2O)[C@@H](O)[C@H](O)[C@H]1O)[C@H]1CC[C@]2(C)[C@@H]1[C@H](O)CC1[C@@]3(C)CC[C@H](O[C@@H]4O[C@H](CO)[C@@H](O)[C@H](O)[C@H]4O[C@@H]4O[C@H](CO)[C@@H](O)[C@H](O)[C@H]4O)C(C)(C)C3CC[C@]12C` (stereo partly drawn), the activity change, negative = inhibition was 2.41% in assay [1]; 13.5% in assay [2]; 10.2% in assay [3]; -3.04% in assay [4]; -1.7% in assay [5].

As to `COc1ccccc1NC(=O)CSc1nnc2n(Cc3ccccc3)c(=O)c3ccccc3n12`, the activity change, negative = inhibition is -4.9% in assay [1]; 1.3% in assay [2]; 1.21% in assay [3]; -5.09% in assay [4]; -2.67% in assay [5].

With `Cc1cc(C(=O)N2CCC(N3CCCC(C(=O)NCCc4ccccc4)C3)CC2)n[nH]1` (stereo not drawn), the activity change, negative = inhibition was -4.6% in assay [1]; -7.51% in assay [2]; -4.03% in assay [3]; -9.66% in assay [4]; 7.91% in assay [5].

On to `Nc1ncccc1CNC(=O)[C@H]1CCC[C@H](O)C1`, for which the activity change, negative = inhibition in assay [1] was -1.19%; in assay [2], -0.626%; in assay [3], 2.16%; in assay [4] it was -2.28%; in assay [5] it was -0.445%.

With `O=[N+]([O-])c1cn2c(n1)OC[C@@H](OCc1ccc(OC(F)(F)F)cc1)C2`, the activity change, negative = inhibition was -2.94% in assay [2], -16.1% in assay [4] and -10.8% in assay [5].

With `O=C(CCn1ccc2cc(S(=O)(=O)N3CCCC3)ccc21)NCc1cccc(Br)c1`, the activity change, negative = inhibition in assay [1] came to 6.78%; in assay [2], 0.46%; in assay [3], 8.34%; in assay [4] it was 9.18%; in assay [5], 4.09%.

In the case of `CCOC(=O)C(C)Oc1cccc2c(=O)n(CC(=O)Nc3ccc4c(c3)OCCO4)ccc12` (stereo not drawn), the activity change, negative = inhibition is 4.57% in assay [1]; 14% in assay [2]; 5.22% in assay [3]; -0.49% in assay [4]; 10.2% in assay [5].

As to `O=C(O)c1ccc(CN2C[C@@H]3OCC(=O)N(c4ccccc4)[C@@H]3C2)cc1`, the activity change, negative = inhibition in assay [1] was -3.2%; in assay [2], -4.96%; in assay [3], -0.791%; in assay [4], -9.58%; in assay [5] it was -8.32%.

On to `CCN1C(=O)c2cc(C(=O)N3CCC(N4CCCCC4)CC3)nn2CC1(C)C(=O)NC1CCCC1` (stereo not drawn), for which the activity change, negative = inhibition in assay [1] was 9.03%; in assay [2], 1.46%; in assay [3], 0.118%; in assay [4] it was 8.73%; in assay [5], 7.21%.

`C[C@]12CCC[C@](C)(C(=O)O)C1CCC13CC(CO)C(CCC12)C3` (stereo partly drawn): the activity change, negative = inhibition is 0% in assay [1]; 4.4% in assay [2]; 11.8% in assay [3]; -9.88% in assay [4]; 1.68% in assay [5].

Turning to `O=C(CC1C(=O)NCCN1CC(c1ccccc1)c1ccccc1)NCc1ccco1` (stereo not drawn), the activity change, negative = inhibition in assay [1] is -12.2%; in assay [2] it was -2.2%; in assay [3] it was -7.02%; in assay [4], -7.97%; in assay [5], 0.221%.

For `CS(=O)(=O)N1C[C@H]2CCN(C(=O)Cc3ccccc3Cl)C[C@H]21`, the activity change, negative = inhibition in assay [1] was -5.57%; in assay [2], -14.7%; in assay [3] it was -4.05%; in assay [4] it was -9.63%; in assay [5] it was -5%.

Turning to `CCCn1c(=O)c2ccc(C(=O)NC3CCCC3)cc2n2c(=O)n(Cc3cccc(Cl)c3)nc12`, the activity change, negative = inhibition in assay [1] was 2.06%; in assay [2] it was 0%; in assay [3], 5.04%; in assay [4], 1.5%; in assay [5], -1.18%.

As for `Cc1ccc(CCN2C(=O)CSc3c(c4ccccc4n3C)C2C(=O)NCCC(C)C)cc1` (stereo not drawn), the activity change, negative = inhibition is 3.74% in assay [1]; 0% in assay [2]; 1.67% in assay [3]; -1.26% in assay [4]; 3.77% in assay [5].

As to `O=C(NCC1CN(C(=O)Cc2cccc(Cl)c2)CC12CN(c1ccccc1)C2)C1CC1` (stereo not drawn), the activity change, negative = inhibition in assay [1] is -6.58%; in assay [2] it was -1.75%; in assay [3], -1.66%; in assay [4], -10.9%; in assay [5], -3.63%.

Take `COc1cccc(S(=O)(=O)N2CCC(OCCOCc3ccccc3)CC2)c1`: the activity change, negative = inhibition was -10.1% in assay [1]; -0.504% in assay [2]; -3.54% in assay [3]; -8.61% in assay [4]; -7.55% in assay [5].

Consider `CC1(C(=O)NC2CCCCCC2)Cn2nc(C3CC3)cc2C(=O)N1Cc1ccccc1Cl` (stereo not drawn), for which the activity change, negative = inhibition in assay [1] was 0.317%; in assay [2], 0%; in assay [3], 7.21%; in assay [4], 2.37%; in assay [5], 0.122%.

Consider `COc1cccc2c1NC(c1ccc(Br)cc1)C1CC=CC21` (stereo not drawn), for which the activity change, negative = inhibition in assay [1] was -6.06%; in assay [2], -2.06%; in assay [3], -7.44%; in assay [4], -18.5%; in assay [5], -20.8%.

`CCc1cc2c(cc3n2CC(C)(C(=O)NC2CCC(C)CC2)N(Cc2ccc(F)cc2)C3=O)s1` (stereo not drawn): the activity change, negative = inhibition in assay [1] turned out to be 5.9%; in assay [2], 2.4%; in assay [3], 6.61%; in assay [4], 3.11%; in assay [5], 2.27%.

As for `Cc1cccc(CSc2nnc3n(Cc4ccccc4)c(=O)c4ccc(C(=O)NC(C)C)cc4n23)c1`, the activity change, negative = inhibition was determined as 8.46% in assay [1]; 3.48% in assay [2]; 12.6% in assay [3]; 6.84% in assay [4]; 8.07% in assay [5].

For `CCCCN1C(=O)c2ccccc2CC1(C)C(=O)NCc1ccccc1` (stereo not drawn), the activity change, negative = inhibition in assay [1] was 11.2%; in assay [2] it was 0%; in assay [3], 11.1%; in assay [4], -2.12%; in assay [5], 1.48%.

Turning to `CC(C)Cc1noc(CN(C)C(=O)CC2C(=O)NCCN2CC(C)C)n1` (stereo not drawn), the activity change, negative = inhibition in assay [1] is -2.02%; in assay [2] it was 1.8%; in assay [3], -1.3%; in assay [4] it was 2.97%; in assay [5] it was -0.799%.

As to `Cc1ccc(N2C(=O)c3cc4sccc4n3CC2(C)C(=O)NC2CCCCCCC2)cc1` (stereo not drawn), the activity change, negative = inhibition in assay [1] is -1.03%; in assay [2] it was 0.059%; in assay [3] it was 3.16%; in assay [4], 1.84%; in assay [5], 0.09%.

Take `CC(=O)O[C@H]1CC[C@@]2(C)C(CC[C@@H](C)[C@]23Cc2c(O)cc4c(c2O3)CN([C@@H](CCC(=O)O)C(=O)O)C4=O)C1(C)C` (stereo partly drawn): the activity change, negative = inhibition was -3.15% in assay [1]; 5.37% in assay [2]; -3.88% in assay [3]; -9.66% in assay [4]; 3.55% in assay [5].

`Cc1cccc(OCCc2noc(C3CCCN3)n2)c1` (stereo not drawn): the activity change, negative = inhibition in assay [1] is -5.11%; in assay [2] it was -4.02%; in assay [3], -5.76%; in assay [4] it was -11%; in assay [5], -2.62%.

In the case of `CC(C)CCNC(=O)C1(C)Cn2nc(C(=O)NCCc3ccc(Cl)cc3)cc2C(=O)N1C` (stereo not drawn), the activity change, negative = inhibition in assay [1] was -3.34%; in assay [2] it was 0.563%; in assay [3] it was 2.36%; in assay [4], -1.66%; in assay [5] it was -2.43%.
